Reference: PMC12547462, “The serine protease HTRA1 targets tau fibrils and provides a proteolytic barrier against pathogenic protein conformations” (The Journal of Biological Chemistry, 2025)

Molecular target: T1, tau fibrils of recombinant 4R2N tau (441-residue isoform), heparin-induced; sonicated to tau fibril seeds (human, UniProt P10636-8 1-441)
T1 construct: microtubule associated protein tau, human, 4R2N (2N4R) isoform, printed length 441 residues; the recombinant protein is named as the 441-residue isoform; numbers count on: the 441-residue human tau isoform; Amyloid fibril, many copies of the chain; Cross-linking was done with the sonicated seeds, the activity assay with fibrillar tau; also called tau seeds; fibrillar tau; source: heparin-induced …
Assay: cross-linking; cross-linking mass spectrometry; 5 uM tau fibril seeds and 5 uM HTRA1 S328A preincubated in 100 mM HEPES, 100 mM NaCl, pH 7.5, 15 min at 37 C; 2 mM PhoX for 15 min, quenched with Tris-HCl; trypsinized
Conditions: both partners purified

binding result: binds
B1: HTRA1^S328A ([…]), Strep-tagged, lacking the N-terminal mac domain (enzyme)
chain: not shown
notes: serine protease HTRA1, […] (protease and PDZ domains, lacking the N-terminal mac domain); catalytic Ser328 exchanged by Ala
